B1: anti-PD-L1 Ab-con-IFN-α (A146D) fusion molecule (FP-08) (other)
light: DIQMTQSPSSVSASVGDRVTITCKTSQDVNTAVAWYQQKPGQAPRLLIYWASTRHTGVPDRFSGSGSGTDFTLTISSLQAEDVAVYYCQQHYNTPLTFGGGTKLEIKRTVAAPSVFIFPPSDEQLKSGTASVVCLLNNFYPREAKVQWKVDNALQSGNSQESVTEQDSKDSTYSLSSTLTLSKADYEKHKVYACEVTHQGLSSPVTKSFNRGEC
heavy: QMQLVQSGAEVKKTGSSVKVSCKASGYTFTSYSINWVRQAPGKGLEWVAYFYVGNGYTDYNEKFKGRVTMTRDTSTSTVYMELSSLRSEDTAVYYCARGGLPYYFDYWGQGTLVTVSSASTKGPSVFPLAPCSRSTSESTAALGCLVKDYFPEPVTVSWNSGALTSGVHTFPAVLQSSGLYSLSSVVTVPSSSLGTKTYTCNVDHKPSNTKVDKRV[human IgG4 Fc with S228P (EU numbers) not printed]CDLPQTHSLGNRRALILLAQMRRISPFSCLKDRHDFGFPQEEFDGNQFQKAQAISVLHEMIQQTFNLFSTKDSSAAWDESLLEKFYTELYQQLNDLEACVIQEVGVEETPLMNVDSILAVKKYFQRITLYLTEKKYSPCAWEVVRDEIMRSFSLSTNLQERLRRKE
B2: anti-PD-L1 Ab-con-IFN-α (A146K) fusion molecule (FP-09) (other)
light: B1 light
heavy: QMQLVQSGAEVKKTGSSVKVSCKASGYTFTSYSINWVRQAPGKGLEWVAYFYVGNGYTDYNEKFKGRVTMTRDTSTSTVYMELSSLRSEDTAVYYCARGGLPYYFDYWGQGTLVTVSSASTKGPSVFPLAPCSRSTSESTAALGCLVKDYFPEPVTVSWNSGALTSGVHTFPAVLQSSGLYSLSSVVTVPSSSLGTKTYTCNVDHKPSNTKVDKRV[human IgG4 Fc with S228P (EU numbers) not printed]CDLPQTHSLGNRRALILLAQMRRISPFSCLKDRHDFGFPQEEFDGNQFQKAQAISVLHEMIQQTFNLFSTKDSSAAWDESLLEKFYTELYQQLNDLEACVIQEVGVEETPLMNVDSILAVKKYFQRITLYLTEKKYSPCAWEVVRKEIMRSFSLSTNLQERLRRKE

Columns and labels:
[1] = biological target: T1, Type I IFN receptor (IFNAR) (UniProt P17181 28-557; P48551 27-515, limits assumed); assay: cell-based or functional assay
T1 sequence (looked up) 1: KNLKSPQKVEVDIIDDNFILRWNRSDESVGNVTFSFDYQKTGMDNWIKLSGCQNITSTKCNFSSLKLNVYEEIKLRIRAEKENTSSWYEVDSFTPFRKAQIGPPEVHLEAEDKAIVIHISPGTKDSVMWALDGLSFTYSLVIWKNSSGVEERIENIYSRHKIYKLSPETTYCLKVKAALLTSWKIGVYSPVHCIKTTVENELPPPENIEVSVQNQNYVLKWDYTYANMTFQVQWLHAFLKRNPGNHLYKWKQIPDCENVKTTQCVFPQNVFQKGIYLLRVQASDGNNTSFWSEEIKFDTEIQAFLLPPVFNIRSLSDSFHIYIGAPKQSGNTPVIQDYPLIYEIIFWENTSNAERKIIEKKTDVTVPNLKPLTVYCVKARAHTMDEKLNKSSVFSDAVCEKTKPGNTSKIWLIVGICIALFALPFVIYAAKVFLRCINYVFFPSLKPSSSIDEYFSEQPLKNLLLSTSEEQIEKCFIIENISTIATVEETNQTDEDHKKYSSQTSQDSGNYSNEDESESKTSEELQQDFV
T1 sequence (looked up) 2: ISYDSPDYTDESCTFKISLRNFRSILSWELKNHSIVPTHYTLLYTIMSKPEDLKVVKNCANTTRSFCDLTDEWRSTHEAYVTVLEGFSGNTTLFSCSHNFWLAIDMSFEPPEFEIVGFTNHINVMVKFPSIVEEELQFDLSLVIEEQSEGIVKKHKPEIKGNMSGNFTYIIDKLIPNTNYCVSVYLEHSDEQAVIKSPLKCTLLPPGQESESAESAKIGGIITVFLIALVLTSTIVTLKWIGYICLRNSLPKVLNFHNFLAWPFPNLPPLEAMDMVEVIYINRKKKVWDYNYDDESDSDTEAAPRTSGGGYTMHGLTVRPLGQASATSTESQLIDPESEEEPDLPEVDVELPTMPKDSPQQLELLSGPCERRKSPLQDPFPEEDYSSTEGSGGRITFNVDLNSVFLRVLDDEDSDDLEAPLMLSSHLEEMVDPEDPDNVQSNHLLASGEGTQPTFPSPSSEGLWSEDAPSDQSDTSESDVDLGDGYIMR

[2] = biological target: T1, Type I IFN receptor (IFNAR); assay: cell-based or functional assay; remark: listed apart in the source

Row | Binder | EC50 (pM) on PD-L1-negative cells; IFN-α reporter assay; sample stored at 4° C. for 80 days [1] | EC50 (pM) on PD-L1-negative cells; IFN-α reporter assay; sample stored at -80° C. for 80 days [1] | EC50 ratio1 (EC50 of FP/EC50 of IFN-α2b) on PD-L1-negative cells; IFN-α reporter assay (SEAP), PD-L1 blocked with REMD290 [2]
1 | B1 | 57.6 pM | 81.4 pM | 209 fold
2 | B2 | 1600 pM | 2040 pM | 6070 fold

Source: patent US20250145680A1 (REMD BIOTHERAPEUTICS, published 2025)
